According to the supplement of paper PMC8728848:
The list shows a part of the results.

What was measured:
Assay in all cases: glycan array binding signal (z-score within array); higher = stronger binding
Conditions in all cases: glycan notation: IUPAC condensed, linker removed
[1] = target: Fuc(a1-3)[Gal(b1-4)]GlcNAc(b1-2)Man
Summary of the method: (§1)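 The binding signal is a Z-score computed within each array and averaged over linkers. Arrays of the same protein sequence at different concentrations or buffers were also averaged together. Data originate from 3228 arrays in the Consortium for Functional Glycomics database, kept only where the protein sequence was available.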

[2] = target: Fuc(a1-3)[Gal(b1-4)]GlcNAc(b1-2)Man(a1-3)[Fuc(a1-3)[Gal(b1-4)]GlcNAc(b1-2)Man(a1-6)]Man(b1-4)GlcNAc(b1-4)GlcNAc
Summary of the method: as §1

[3] = target: Fuc(a1-3)[Gal(b1-4)]GlcNAc(b1-2)Man(a1-3)[Fuc(a1-3)[Gal(b1-4)]GlcNAc(b1-2)Man(a1-6)]Man(b1-4)GlcNAc(b1-4)[Fuc(a1-6)]GlcNAc
Summary of the method: as §1

[4] = target: Fuc(a1-3)[Gal(b1-4)]GlcNAc(b1-3)Gal(b1-3)[Fuc(a1-4)]GlcNAc
Summary of the method: as §1

[5] = target: Fuc(a1-3)[Gal(b1-4)]GlcNAc(b1-3)GalNAc
Summary of the method: as §1

[6] = target: Fuc(a1-3)[Gal(b1-4)]GlcNAc(b1-4)Gal(b1-4)[Fuc(a1-3)]GlcNAc
Summary of the method: as §1

[7] = target: Fuc(a1-3)[Gal(b1-4)]GlcNAc(b1-4)Gal(b1-4)[Fuc(a1-3)]GlcNAc(b1-4)Gal(b1-4)[Fuc(a1-3)]GlcNAc
Summary of the method: as §1

[8] = target: Fuc(a1-3)[Gal(b1-4)]GlcNAc(b1-6)GalNAc
Summary of the method: as §1

[9] = target: Fuc(a1-3)[Gal(b1-4)]GlcNAc(b1-6)[Gal(b1-3)GlcNAc(b1-3)]Gal(b1-4)Glc
Summary of the method: as §1

[10] = target: Fuc(a1-3)[Gal(b1-4)]GlcNAc6S
Summary of the method: as §1

[11] = target: Fuc(a1-3)[Gal3S(b1-4)]Glc
Summary of the method: as §1

[12] = target: Fuc(a1-3)[Gal3S(b1-4)]GlcNAc
Summary of the method: as §1

[13] = target: Fuc(a1-3)[Gal3S(b1-4)]GlcNAc6S
Summary of the method: as §1

[14] = target: Fuc(a1-3)[GalNAc(b1-4)]GlcNAc
Summary of the method: as §1

[15] = target: Fuc(a1-3)[GalNAc(b1-4)]GlcNAc6S
Summary of the method: as §1

Fuc(a1-4)GlcNAc = target: Fuc(a1-4)GlcNAc
Summary of the method: as §1

Fuc(b1-3)GlcNAc = target: Fuc(b1-3)GlcNAc
Summary of the method: as §1

Gal(a1-2)Gal = target: Gal(a1-2)Gal
Summary of the method: as §1

Gal(a1-3)Gal = target: Gal(a1-3)Gal
Summary of the method: as §1

Gal(a1-3)Gal(b1-3)GlcNAc = target: Gal(a1-3)Gal(b1-3)GlcNAc
Summary of the method: as §1

[16] = target: Gal(a1-3)Gal(b1-3)GlcNAc(b1-2)Man
Summary of the method: as §1

[17] = target: Gal(a1-3)Gal(b1-3)GlcNAc(b1-2)Man(a1-3)[Gal(a1-3)Gal(b1-3)GlcNAc(b1-2)Man(a1-6)]Man(b1-4)GlcNAc(b1-4)GlcNAc
Summary of the method: as §1

[18] = target: Gal(a1-3)Gal(b1-3)GlcNAc(b1-3)GalNAc
Summary of the method: as §1

[19] = target: Gal(a1-3)Gal(b1-3)GlcNAc(b1-6)GalNAc
Summary of the method: as §1

[20] = target: Gal(a1-3)Gal(b1-3)[Fuc(a1-4)]GlcNAc(b1-2)Man(a1-3)[Gal(a1-3)Gal(b1-3)[Fuc(a1-4)]GlcNAc(b1-2)Man(a1-6)]Man(b1-4)GlcNAc(b1-4)GlcNAc
Summary of the method: as §1

Gal(a1-3)Gal(b1-4)Glc = target: Gal(a1-3)Gal(b1-4)Glc
Summary of the method: as §1

Gal(a1-3)Gal(b1-4)GlcNAc = target: Gal(a1-3)Gal(b1-4)GlcNAc
Summary of the method: as §1

[21] = target: Gal(a1-3)Gal(b1-4)GlcNAc(b1-2)Man
Summary of the method: as §1

[22] = target: Gal(a1-3)Gal(b1-4)GlcNAc(b1-2)Man(a1-3)[Gal(a1-3)Gal(b1-4)GlcNAc(b1-2)Man(a1-6)]Man(b1-4)GlcNAc(b1-4)GlcNAc
Summary of the method: as §1

[23] = target: Gal(a1-3)Gal(b1-4)GlcNAc(b1-3)GalNAc
Summary of the method: as §1

[24] = target: Gal(a1-3)Gal(b1-4)GlcNAc(b1-6)GalNAc
Summary of the method: as §1

[25] = target: Gal(a1-3)Gal(b1-4)[Fuc(a1-3)]GlcNAc
Summary of the method: as §1

[26] = target: Gal(a1-3)Gal(b1-4)[Fuc(a1-3)]GlcNAc(b1-2)Man(a1-3)[Gal(a1-3)Gal(b1-4)[Fuc(a1-3)]GlcNAc(b1-2)Man(a1-6)]Man(b1-4)GlcNAc(b1-4)GlcNAc
Summary of the method: as §1

Gal(a1-3)GalNAc = target: Gal(a1-3)GalNAc
Summary of the method: as §1

[27] = target: Gal(a1-3)[Gal(a1-4)]Gal(b1-4)GlcNAc
Summary of the method: as §1

[28] = target: Gal(a1-4)Gal(b1-3)GlcNAc(b1-2)Man(a1-3)[Gal(a1-4)Gal(b1-3)GlcNAc(b1-2)Man(a1-6)]Man(b1-4)GlcNAc(b1-4)GlcNAc
Summary of the method: as §1

Gal(a1-4)Gal(b1-4)Glc = target: Gal(a1-4)Gal(b1-4)Glc
Summary of the method: as §1

Gal(a1-4)Gal(b1-4)GlcNAc = target: Gal(a1-4)Gal(b1-4)GlcNAc
Summary of the method: as §1

B1: Gal 4 (Mus musculus), P56470 (protein)
chain: MAYVPAPGYQPTYNPTLPYYQPIPGGLNVGMSVYIQGVASEHMKRFFVNFVVGQDPGSDVAFHFNPRFDGWDKVVFNTLQGGKWGSEERKRSMPFKKGAAFELVFIVLAEHYKVVVNGNPFYEYGHRLPLQMVTHLQVDGDLQLQSINFIGGQPLRPQGPPMMPPYPGPGHCHQQLNSLPTMEGPPTFNPPVPYFGRLQGGLTARRTIIIKGYVPPTGKSFAINFKVGSSGDIALHINPRMGNGTVVRNSLLNGSWGSEEKKITHNPFGPGQFFDLSIRCGLDRFKVYANGQHLFDFAHRLSAFQRVDTLEIQGDVTLSYVQI
[1]
  glycan array binding signal (z-score): -0.291
[2]
  glycan array binding signal (z-score): -0.242
[3]
  glycan array binding signal (z-score): -0.203
[4]
  glycan array binding signal (z-score): -0.208
[5]
  glycan array binding signal (z-score): -0.224
[6]
  glycan array binding signal (z-score): -0.245
[7]
  glycan array binding signal (z-score): -0.221
[8]
  glycan array binding signal (z-score): -0.301
[9]
  glycan array binding signal (z-score): -0.241
[10]
  glycan array binding signal (z-score): -0.224
[11]
  glycan array binding signal (z-score): -0.291
[12]
  glycan array binding signal (z-score): -0.236
[13]
  glycan array binding signal (z-score): -0.221
[14]
  glycan array binding signal (z-score): -0.226
[15]
  glycan array binding signal (z-score): -0.288
Fuc(a1-4)GlcNAc
  glycan array binding signal (z-score): -0.237
Fuc(b1-3)GlcNAc
  glycan array binding signal (z-score): -0.217
Gal(a1-2)Gal
  glycan array binding signal (z-score): -0.23
Gal(a1-3)Gal
  glycan array binding signal (z-score): -0.25
Gal(a1-3)Gal(b1-3)GlcNAc
  glycan array binding signal (z-score): -0.217
[16]
  glycan array binding signal (z-score): -0.301
[17]
  glycan array binding signal (z-score): -0.169
[18]
  glycan array binding signal (z-score): -0.162
[19]
  glycan array binding signal (z-score): -0.257
[20]
  glycan array binding signal (z-score): -0.177
Gal(a1-3)Gal(b1-4)Glc
  glycan array binding signal (z-score): 1
Gal(a1-3)Gal(b1-4)GlcNAc
  glycan array binding signal (z-score): -0.128
[21]
  glycan array binding signal (z-score): -0.16
[22]
  glycan array binding signal (z-score): -0.281
[23]
  glycan array binding signal (z-score): -0.202
[24]
  glycan array binding signal (z-score): -0.256
[25]
  glycan array binding signal (z-score): -0.234
[26]
  glycan array binding signal (z-score): -0.199
Gal(a1-3)GalNAc
  glycan array binding signal (z-score): -0.214
[27]
  glycan array binding signal (z-score): -0.208
[28]
  glycan array binding signal (z-score): -0.214
Gal(a1-4)Gal(b1-4)Glc
  glycan array binding signal (z-score): -0.236
Gal(a1-4)Gal(b1-4)GlcNAc
  glycan array binding signal (z-score): -0.203
